Test results published in publication PMC10726135.
This is one part of the list. At the low end of the ranking the order means little. Measured with an extract: partners may take part in the binding.

Target: T1, HNF4alpha2 (COS-7 nuclear extract) (UniProt P41235)
T1 sequence: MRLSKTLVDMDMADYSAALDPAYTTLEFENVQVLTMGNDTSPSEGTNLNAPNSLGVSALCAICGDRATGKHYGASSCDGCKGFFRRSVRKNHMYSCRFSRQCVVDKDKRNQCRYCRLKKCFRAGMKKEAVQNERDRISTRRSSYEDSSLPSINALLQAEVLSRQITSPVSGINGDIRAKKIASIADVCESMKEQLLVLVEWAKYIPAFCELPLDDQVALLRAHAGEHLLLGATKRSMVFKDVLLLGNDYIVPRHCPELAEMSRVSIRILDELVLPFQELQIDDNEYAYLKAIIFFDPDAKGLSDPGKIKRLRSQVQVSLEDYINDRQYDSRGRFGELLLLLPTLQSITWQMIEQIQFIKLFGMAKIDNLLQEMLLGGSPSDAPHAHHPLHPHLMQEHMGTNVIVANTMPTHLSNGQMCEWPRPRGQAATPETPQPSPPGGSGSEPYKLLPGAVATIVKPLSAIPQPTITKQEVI
Assay: protein-binding microarray
Details: COS-7 nuclear extract on double-stranded Agilent 4x180k PBM; binding buffer, salt, pH and temperature not given; high values mean tight binding; double strand, one strand shown; sequences stand for … in …GCCTAGGGAGATTAGAGTATCGGTCGA

Q: How did the binding signal (log2 normalized intensity) turn out when TGCTGGTCAGGAGACTGCTCGGCATCCCTG was run?
A: -1.14

Q: Which binding signal (log2 normalized intensity) does the source give for AGAGGTCGTGTCTCCATTCAGCATTGCTTG here?
A: -0.703

Q: Which binding signal (log2 normalized intensity) does the source give for GGGGGGAGACAACTGCAACAGGAGGACCTC here?
A: -1.12

Q: With GAATGAAACGGATGCAAAGGCTGAGCCCTT as the sequence, how does the binding signal (log2 normalized intensity) read?
A: -1.13

Q: GACACCAGGGAACACACCATGTACAGAGAG was tested. Which binding signal (log2 normalized intensity) did it give?
A: -1.19

Q: Which binding signal (log2 normalized intensity) does the source give for AGGTGTTTCAGATGGACCAAAGGTCTTGTA here?
A: 2.83

Q: With ATCATTGTGCAACCTGGACATTGGCTGATA as the sequence, how does the binding signal (log2 normalized intensity) read?
A: 1.74

Q: How did the binding signal (log2 normalized intensity) turn out when GACCTGTCTTCCTGGTGACCTTTGTTTGGT was run?
A: 4.94

Q: With AACAAGTAAAATGAGCAAACAGAACTGTTA as the sequence, how does the binding signal (log2 normalized intensity) read?
A: -1.17

Q: For AGGAATGTTCATTCATTCACCTTTCGCCCT, which binding signal (log2 normalized intensity) is on record?
A: 2.95

Q: CACTGATAAGTCTGCTTGCCATTAATGAAA was tested. Which binding signal (log2 normalized intensity) did it give?
A: -1.07

Q: Which binding signal (log2 normalized intensity) does the source give for CAGCGCTTTGGTAGGCTGTATGGCTGCACA here?
A: -1.27

Q: For CTAAATTAGATATGGCTTATACTTGAGGTA, which binding signal (log2 normalized intensity) is on record?
A: -1.08

Q: How did the binding signal (log2 normalized intensity) turn out when AAGCTTGGTATGCTTAAGTGGCTCACCCAA was run?
A: -1.07

Q: Which binding signal (log2 normalized intensity) does the source give for ACCCAAATCAAAGTAACAAGAGGCAAAGGC here?
A: -0.983

Q: For CCCGAGTGAGGCAATGCCTCGCCCTGCTTC, which binding signal (log2 normalized intensity) is on record?
A: -1.18

Q: For TGGGAGATATATGAGGGGTGTAAACCTGGT, which binding signal (log2 normalized intensity) is on record?
A: -0.0995

Q: ACCCCCATTCTTCCTGGTATCAGAGTGGAG was tested. Which binding signal (log2 normalized intensity) did it give?
A: 1.36

Q: GGAGATGAGTGGGTTCACTTTGAGCAAGAT was tested. Which binding signal (log2 normalized intensity) did it give?
A: 0.683

Q: Which binding signal (log2 normalized intensity) does the source give for GGCGCTTATCTGAGCACACACTCACGGACC here?
A: -1.21

Q: For TGAAGCTCTCTTTGTGAAATGGGACCCAAC, which binding signal (log2 normalized intensity) is on record?
A: 1.14

Q: For AGCCTCATCTGAGATAAGGCAAGTCCCTTC, which binding signal (log2 normalized intensity) is on record?
A: -1.11

Q: For AAACTATGCATGCTGTGTGTGTGTGTGTGT, which binding signal (log2 normalized intensity) is on record?
A: 3.31

Q: For AGATAAGATAGCACCAGCCCATTAATCAAG, which binding signal (log2 normalized intensity) is on record?
A: -1.16

Q: With TTTTGTTTAGGAAGAGATCAAAGTTCTGTT as the sequence, how does the binding signal (log2 normalized intensity) read?
A: 2.91

Q: Which binding signal (log2 normalized intensity) does the source give for GACATCTGGAAATGTTTGTAGGGACTTTGA here?
A: 4.28

Q: With CCTGCCGGCGGCGCAGACGGCGGATCCTCC as the sequence, how does the binding signal (log2 normalized intensity) read?
A: -1.11

Q: TAACTCCTTTGTGTGAATCGACCTTTAGCA was tested. Which binding signal (log2 normalized intensity) did it give?
A: 5.44

Q: Which binding signal (log2 normalized intensity) does the source give for CTTCCAGTATCTTAGCCAAAGAGAAGCCTA here?
A: -1.11

Q: TACGTTTCTTTCATGTCATAGTAAATCCAC was tested. Which binding signal (log2 normalized intensity) did it give?
A: 0.896

Q: Which binding signal (log2 normalized intensity) does the source give for ACAGATAAACCCCTGGAGCACAGAAGGAGG here?
A: -1.14

Q: For CTTCCTGAATGCCTAGGTGACAAGGAAAAC, which binding signal (log2 normalized intensity) is on record?
A: -0.974

Q: With TGGACATTGGCCCTTTGACCTTTAATCAAG as the sequence, how does the binding signal (log2 normalized intensity) read?
A: 6.47

Q: For ATCTACCCTTGACAATTCCTATTCATTCCC, which binding signal (log2 normalized intensity) is on record?
A: -0.0843

Q: How did the binding signal (log2 normalized intensity) turn out when CCACCGTGGTGTAGAGGCCCTGCAGGGCCC was run?
A: -1.23

Q: Which binding signal (log2 normalized intensity) does the source give for AGAGGAGGGGGCAGGAGCCCAAGAAGCGTC here?
A: -1.15

Q: How did the binding signal (log2 normalized intensity) turn out when CTTTCCTAGACGTAAGACAACATCTGGTGT was run?
A: 0.801

Q: TCCCTATGTTGTCCCTGCCCTTTGTCCAGG was tested. Which binding signal (log2 normalized intensity) did it give?
A: 3.89

Q: With AGGTACTGGTAGCCTGGGCCCCAGGGGACG as the sequence, how does the binding signal (log2 normalized intensity) read?
A: -0.222

Q: How did the binding signal (log2 normalized intensity) turn out when AAATCCAAAGGGCATCAGCCCCAATGGCTA was run?
A: -1.11
